Source: PubChem BioAssay AID463173 (ICCB-Longwood Screening Facility, Harvard Medical School, 2010)
Screen size: about 52,000 compounds; about 4,300 (8.3%) were called active. No stated cut-off is given here; in the data, active means survival mostly below about 52% (no sharp cut-off); inactive means mostly above about 56%. The list shows a part of the results.

Each compound was assayed on DeltatarO mutant (assay: S. aureus survival, RN4220 and DeltatarO strains – OD600, teichoic acid synthesis inhibitors, primary screen (AID 463173)). Conditions: S. aureus RN4220 wild type/DeltatarO growth, OD600, 18 h, stronger effect = lower value, screened at 18.75 µg/mL (by protocol).
With `CCc1nn2c(=O)c(S(=O)(=O)Nc3ccc(Cl)cc3)c(C)nc2s1` the survival was inactive: 110%.
In the case of `Cc1ccccc1Nc1c(-c2cccnc2)nc2ccc(Cl)cn12`, the survival is reported as inactive: 92%.
`CCCCN(CCCNC(=O)c1cc(Nc2ccc(OC)c(OC)c2)nc2ccccc12)c1ccccc1` was tested, and the survival was inactive: 81%.
With `CCOc1ccccc1NS(=O)(=O)c1ccc2c(c1)oc(=O)n2C` the survival was inactive: 98%.
`CCN(CC)CCCNC(=O)Cc1csc2nc(-c3ccc(Cl)cc3)cn12` was tested, and the survival was inactive: 115%.
`CCc1cc2c(cc3c(=O)n(CCCC(=O)NCc4cccc(Cl)c4)ncn32)s1` was tested, and the survival was inactive: 67%.
In the case of `Cc1cccc(CCNC(=O)c2cc3c(=O)n(C)c4ccccc4c3n2C)c1`, the survival is reported as inactive: 74%.
With `O=C(CN1C(=O)CCn2nc(-c3ccccc3)cc21)NCc1ccc(Cl)cc1` the survival was active: 0%.
`Cc1cc2c(n1-c1ccc(C(=O)NCc3ccccc3Cl)cc1)CCCC2` was tested, and the survival was inactive: 86%.
With `COc1ccccc1NC(=S)N(CCO)Cc1cc2cc3c(cc2[nH]c1=O)OCCO3` the survival was inactive: 124%.
For `COc1ccccc1N1CCN(C(=O)c2c(C)oc3ncn(C)c(=O)c23)CC1`, the survival was inactive: 77%.
`O=C(CCSCc1ccccc1Cl)NCc1ccc(F)cc1Cl` was tested, and the survival was active: 8%.
With `O=C(CCn1cccn1)Nc1ccc(Br)cc1F` the survival was inactive: 93%.
`NC(=O)COc1ccc(/C=N/NC(=O)c2ccc(CN3CCOCC3)cc2)cc1` was tested, and the survival was inactive: 88%.
`COc1ccc(CNC(=O)c2ccc3c(c2)N(Cc2c(F)cccc2Cl)C(=O)CS3)cc1` was tested, and the survival was inactive: 124%.
With `CCOC(=O)CSc1nc2ccc(NC(=O)c3cccc(F)c3)cc2s1` the survival was inactive: 71%.
With `COc1cccc(NC(=O)CN(CCc2ccccc2)S(=O)(=O)c2ccc(Cl)cc2)c1` the survival was inactive: 52%.
`Cc1nc2ccccc2n1CCc1nc2c3ccccc3nc(SCc3ccc(C#N)cc3)n2n1` was tested, and the survival was inactive: 81%.
In the case of `O=c1c(NCc2cccs2)nccn1-c1ccc(F)cc1`, the survival is reported as inactive: 94%.
For `CCOc1ccc(NS(=O)(=O)c2ccc3[nH]c4c(c3c2)CCCCC4)cc1`, the survival was inactive: 89%.
With `O=S(=O)(NCc1nc2cccnc2n1Cc1ccccc1Cl)c1ccc2c(c1)CCCC2` the survival was inactive: 94%.
`Cc1cccc(-c2nc3c4ccccc4nc(NCCc4ccccc4)n3n2)c1` was tested, and the survival was active: 7%.
With `Cn1nnnc1SCCNCc1cc(Br)ccc1OCc1ccccc1Cl` the survival was inactive: 57%.
In the case of `Cc1ccc(C(=O)Nc2cccc3cccnc23)cc1Cl`, the survival is reported as inactive: 72%.
For `COC(=O)c1c(-c2cccs2)csc1NC(=O)COc1ccc(C)cc1`, the survival was inactive: 102%.
For `COc1cccc(OC)c1C(=O)NCCc1csc(-c2ccc(Cl)cc2)n1`, the survival was inactive: 70%.
In the case of `CC(C)c1cnc2c(c1SCC(=O)NCc1ccccc1Cl)c(=O)n(C)c(=O)n2C`, the survival is reported as inactive: 80%.
With `O=C(c1ccc2c(c1)N(Cc1cccc(F)c1)C(=O)c1ccccc1S2)N1CCCC1` the survival was inactive: 88%.
In the case of `COc1ccc(C(CC(=O)Nc2ccc(C(C)=O)cc2)N2Cc3ccccc3C2=O)cc1` (centres undefined), the survival is reported as inactive: 69%.
For `Cc1cccc2c1-c1sc(C(=O)N(C)c3cccc(Cl)c3)cc1CO2`, the survival was active: 0%.
With `Cc1cccc(N2CCN(C(=O)c3noc4c3COc3ccc(C)cc3-4)CC2C)c1` (centres undefined) the survival was inactive: 58%.
`Cc1ccc(CN2C(=O)c3ccccc3CC2(C)C(=O)NC2CCCCC2)cc1` (centres undefined) was tested, and the survival was inactive: 91%.
`CSc1ccc(CCNC(=O)CCc2c(C)nc3ncnn3c2C)cc1` was tested, and the survival was inactive: 87%.
In the case of `CCOc1ccccc1C(=O)NC1(C(F)(F)F)C(=O)Nc2c1c(=O)[nH]c(=O)n2-c1ccc(F)cc1` (centres undefined), the survival is reported as inactive: 88%.
With `Cc1ccc(Cl)cc1Nc1nn2c(=O)c3ccc(C(=O)NCc4ccc(F)cc4)cc3nc2s1` the survival was inactive: 116%.
With `CCOc1ccc(CNC(=O)Cc2ccc(NC(=O)N3CCSc4ncccc43)cc2)cc1` the survival was inactive: 96%.
In the case of `Cc1cccn2c(=O)c(C(=O)NCc3cccc(F)c3)cnc12`, the survival is reported as inactive: 87%.
For `CCC(=O)N(Cc1cc(=O)[nH]c2ccccc12)C1CCCCC1`, the survival was inactive: 69%.
For `Cc1cccc(-c2nc3scc(CCNS(=O)(=O)c4ccc5c(c4)OCCO5)n3n2)c1`, the survival was inactive: 85%.
With `Cn1c(=O)c2sccc2n2c(CCC(=O)NCc3ccc(Cl)cc3)nnc12` the survival was inactive: 183%.
`COc1ccc(Nc2c(-c3cccc(O)c3)nc3cnccn23)cc1` was tested, and the survival was inactive: 66%.
For `CCOC(=O)c1c(Nc2ccc(OC)cc2)nnc(-c2ccccc2)c1-c1ccccc1`, the survival was active: 7%.
`CN1CCN(c2ncc3c(n2)CCN(Cc2ccc(Br)s2)C3)CC1` was tested, and the survival was inactive: 76%.
`CCOc1ccc(NC(=O)COc2ccc(S(=O)(=O)NC3CCCCC3)cc2)cc1` was tested, and the survival was inactive: 62%.
With `COc1ccc(-c2csc(=Nc3ccccc3)n2CCO)cc1F` the survival was inactive: 58%.
In the case of `O=C(N/N=C/C=C/c1ccco1)c1cccs1`, the survival is reported as inactive: 120%.
`CCOc1ccc(NC(=O)/C(C#N)=C\c2ccc(-c3ccc(Cl)cc3)o2)cc1` was tested, and the survival was inactive: 50%.
With `O=C(CSc1n[nH]c(-c2ccc(F)cc2)n1)NCCc1ccccc1` the survival was inactive: 108%.
For `Cc1c(Cl)cccc1NC(=O)CCS(=O)(=O)c1ccc2c(c1)CC(=O)N2C`, the survival was inactive: 77%.
In the case of `Cc1ccc(S(=O)(=O)NCCc2cn3ccsc3n2)c(C)c1`, the survival is reported as inactive: 72%.
`COc1cccc(NC(=O)Cn2cc(C(=O)c3ccc(C)cc3)c(=O)c3cc(OC)ccc32)c1` was tested, and the survival was inactive: 72%.
`COc1ccccc1-c1cc(C(=O)NCc2ccccc2)c2c(-c3ccc(C)cc3)[nH]nc2n1` was tested, and the survival was inactive: 80%.
With `O=C(Nc1ncc(Cc2ccccc2)s1)C1CCCO1` (centres undefined) the survival was inactive: 101%.
`COc1ccc(NC(=O)c2oc3ccccc3c2NC(=O)Cc2coc3c(C)c(C)ccc23)cc1` was tested, and the survival was inactive: 74%.
For `CC(C)C(c1nnnn1Cc1ccccc1)N1CCC(C(N)=O)CC1` (centres undefined), the survival was inactive: 67%.
With `COc1ccc(-c2nc3cc(NC(=O)CSc4ccc(C)cc4)ccc3o2)cc1` the survival was inactive: 66%.
In the case of `C=CCc1c(C)nc(SC)[nH]c1=O`, the survival is reported as inactive: 99%.
With `Cc1ccc(S(=O)(=O)c2nc(S(=O)(=O)c3ccccc3)sc2NCCCOC(C)C)cc1` the survival was inactive: 71%.
`CCc1ccc(NC(=O)Cn2ccn(-c3ccc(C)c(C)c3)c(=O)c2=O)cc1` was tested, and the survival was inactive: 104%.
